The whole screen tested about 150,000 compounds, of which about 540 (0.36%) showed an effect of 50% or more. The list shows a part of the results.
tested on: Plasmodium falciparum; experiment: Primary screen in NF54 nanoGlo assay, in single point, at 2uM, 72h; a lower Z score goes with more inhibition; assay type: functional, Erythrocyte; settings: timepoint 72 hour

Row | SMILES | % Inhibition [%] | Z score
1 | Cc1nn(-c2ncccn2)c2c1[C@@H](c1ccc(F)cc1Cl)CC(=O)N2 | 34 | -3.8
2 | CC(C)[C@]1(C)NC(=O)N(Cc2cccc3cccnc23)C1=O | 5 | -0.48
3 | Cc1cc([C@H](C)Nc2cnn(CC(C)C)c2)no1 | -8 | 0.96
4 | Nc1c2c(-c3cccc(F)c3)nc(NCCc3ccccc3)nc2nn1-c1cccc(F)c1 | -5 | 0.65
5 | CC1(C)CN(C(=O)Nc2ccccc2N2CCCC2)CCCO1 | 2 | -0.49
6 | CC(=O)Nc1ccc(S(=O)(=O)N2CC[C@H](Oc3cnc4ccccc4n3)C2)c(C)c1 | 4 | -0.82
7 | COC(=O)[C@@H](NC(=O)N1CCN(C(=O)N[C@H](C(=O)OC)C(C)C)CC1)C(C)C | -14 | 1.71
8 | CC1CCCC(C(C)NC(=O)CCOC2CCOCC2)C1 (configuration not stated) | -2 | 0.28
9 | Cc1ncc(C(C)C)c(NCc2n[nH]c(=O)[nH]2)n1 | -1 | 0.11
10 | CCC1Oc2cc(C(C)Nc3nccc(OC)n3)ccc2NC1=O (configuration not stated) | -12 | 1.65
11 | Cc1cc2occ(CC(=O)N[C@@H](Cc3c[nH]c4cc(F)ccc34)C(=O)O)c2cc1C | 39 | -5.06
12 | Nc1c2c(-c3ccc(F)c(Cl)c3)nc(N3CCCCC3)nc2nn1-c1ccccc1 | -18 | 1.76
13 | CC(=O)c1ccc(NC(=O)c2cccc(-c3noc(C4CCC4)n3)c2)cc1 | 3 | -0.45
14 | CCN1CCN(c2nccc(C3CCCC3)n2)[C@@H](C)C1=O | -10 | 1.68
15 | CCC(CC)c1n[nH]c2c1CN(Cc1nc(C)c(C)nc1C)CC2 | -6 | 0.85
16 | Cc1ccc(CNC(=O)c2oc3ccc4c(c3c2C)[C@@H](O)CC(C)(C)O4)cc1 | 5 | -0.92
17 | O=C(O)[C@H]1CCCN(C(=O)C2CC2c2ccc3ccccc3c2)C1 (some centres not stated) | -1 | 0.14
18 | NC(=O)c1cncc(Oc2ccc(C(F)(F)F)nn2)c1 | -21 | 3.35
19 | O=C(NCC1CCN(c2cc(-c3ccccc3)n[nH]2)CC1)c1n[nH]c2c1CCCC2 | -23 | 2.34
20 | Cc1cc2nc(Cc3ccc(F)cc3)n([C@@H](C)C(=O)NCCc3ccccn3)c2cc1C | -15 | 1.75
21 | CC1CCN(CC(=O)N2CCCCCC2)CC1 | -1 | 0.08
22 | COc1ccc(NC(=O)c2ccc(OCC3CCOCC3)nc2)cc1Cl | -9 | 1.76
23 | CCN1CCN(C(=O)[C@H](C)N(c2ccc(OC)cc2)c2nc(-c3ccc(OC)cc3)cs2)CC1 | 0 | 0.07
24 | O=S(=O)(Nc1ccn2nccc2c1)c1ccc(F)c(Cl)c1 | 0 | -0.06
25 | CN(CCc1ccccn1)C(=O)c1ccc2sc(N)nc2c1 | -9 | 1.36
26 | CC(C)N1CCC(N2C(=O)O[C@H]3CN(Cc4ccc(F)c(F)c4)C[C@H]32)CC1 | -5 | 0.7

Row | SMILES | % Inhibition [%] | Z score
27 | Cc1cccc(CS(=O)(=O)N2CC(=O)Nc3ccccc32)c1 | -10 | 1.87
28 | CC1CCC2C(CCCN2C(=O)COCC2CCCO2)C1 (configuration not stated) | -6 | 0.9
29 | COc1ccc(CNC(=O)c2cc(-c3sc(-c4ccc(C)cc4)nc3C)n[nH]2)cc1 | -6 | 0.86
30 | O=C(N[C@@H]1CCCC[C@H]1NC(=O)C1CCN(C(=O)c2cccc(F)c2)CC1)c1ccc(F)cc1 | 29 | -3.3
31 | Cn1cccc1CN1CC(Cc2nc(-c3cccnc3)no2)C1 | -13 | 1.82
32 | CCOC(=O)[C@H]1CCCN(C(=O)CN2C(=O)COc3ccc(S(=O)(=O)N4CCOCC4)cc32)C1 | -14 | 1.83
33 | CCc1c(C)sc2c1CCN(C(=O)Nc1cccc(C)c1C)[C@@H]2c1ccccc1 | 7 | -0.66
34 | Cc1coc2ccc(NC(=O)NCCN3C(=O)CNC3=O)cc12 | -7 | 1.03
35 | O=c1c2ccccc2cnn1CN1CCC2(CCCCC2)CC1 | -7 | 0.98
36 | COc1ccc(CCNC(=O)CCS(=O)(=O)Cc2ccc(Cl)cc2)cc1OC | -6 | 1.02
37 | COCC(=O)NC1CN(C(=O)c2cccc(Cl)c2C)C1 | -4 | 0.61
38 | Cc1ccc(-c2nc3ccccc3n2CCNS(=O)(=O)c2ccc(C3CCCCC3)cc2)cc1 | -2 | 0.34
39 | C=C(C)[C@H]1OCC[C@H]1C(=O)NC1CCCC1OC (some centres not stated) | -5 | 0.51
40 | Cn1nc(C2CC2)c2c(C(=O)O)cc(-c3ccc(OC(F)F)cc3)nc21 | -32 | 3.72
41 | Cc1cc(F)cc(C(=O)OC[C@H]2CCC(=O)N2)c1 | 0 | -0.08
42 | CN(C(=O)c1cccnc1)[C@@H](Cc1ccc(F)cc1F)C1CCN(C(=O)CCC2CCCCC2)CC1 | 14 | -1.77
43 | CN(C[C@H](O)C(F)(F)F)C(=O)c1ccc(C#N)cn1 | -15 | 1.32
44 | O=C(O)c1cccc(S(=O)(=O)Nc2ccccc2N2CCc3sccc3C2)c1 | 0 | 0.05
45 | C[C@@H]1CN(C(=O)c2ccccc2OC(F)F)C[C@H](C)N1C | -8 | 0.99
46 | CCCC(=O)N1CCC(c2nnc(C(=O)Nc3ccc(F)cc3F)s2)CC1 | -22 | 2.05
47 | CC(=O)N1C[C@@H](O)C[C@@H]1c1nc(-c2ccc3oc(N(C)C)nc3c2)no1 | -5 | 1.05
48 | CCCc1nn(-c2cccc(Cl)c2)c(O)c1C(=O)CN(CCC)C(=O)c1ccc(CC)cc1 | 5 | -0.57
49 | O=C(CS(=O)(=O)c1ccc2c(c1)S(=O)(=O)N=CN2)Nc1ccccc1Cl | -3 | 0.46
50 | COc1ccc(C(=O)N2CCOc3ccc(CN4CCCCCC4)cc3C2)cc1OC | -21 | 2.2
51 | CC(C)C[C@@H](c1nc(-c2ccccc2F)no1)n1ccnc1 | -1 | 0.11

From ChEMBL document CHEMBL4888484, “Replenishing the malaria drug discovery pipeline: Screening and hit evaluation of the MMV Hit Generation Library 1 (HGL1) against asexual blood stage Plasmodium falciparum ,using a nano luciferase reporter read-out” (2022)
